Measured values published in PubChem BioAssay (NCI).
Several values for one entry are separate records, joined by “and”; a condition that tells them apart may be missing. Equal values may be shown once.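 All cell lines were grown in 96-well plates and treated with compound for 48 hours. Abbreviation: GI50, concentration required for 50% inhibition of growth. The concentration for full growth arrest is given as TGI.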 Numbered stars: 1 amine (or outer) side, 2 acyl side, 3 side chain; on linkers, the order of the positions; unused ones are H or OH. Bridge positions count the residues as written; N and C are the ends. Square brackets hold non-standard residues; d marks the D form. Peptide text beside a SMILES is read from it. I, II: the chains in the order shown. ξ: configuration not given here. X50 = N=C(N)NCCC[C@@H](NC(=N)CCCCCCC(=N)N[C@H](CCCNC(=N)N)C(=O)[*:2])C(=O)[*:1]; dIgl = N[C@@H](C(=O)O)C1Cc2ccccc2C1; Hyp = O=C(O)[C@@H]1C[C@@H](O)CN1; ξIgl = NC(C(=O)O)C1Cc2ccccc2C1; ξOic = O=C(O)C1CC2CCCCC2N1; ξR = N=C(N)NCCCC(N)C(=O)O; ξP = O=C(O)C1CCCN1; ξS = NC(CO)C(=O)O

The molecules below were run on NCI-H322M lung (assay: NCI anticancer screen, dose series, 48 h).

Compared with CC#C[C@]1(O)CCC2[C@@H]3CCC4=CC(=O)CCC4=C3[C@@H](c3ccc(N(C)C)cc3)C[C@@]21C (some centres not stated), C/C=C1/CN2CCC34c5ccccc5N(C)C23C2CC1C4(C(=O)OC)C(OC(C)=O)O2 (configuration not stated) is higher in TGI: 67.2 µM for the first, > 100 µM for the second.

O=[N+]([O-])c1ccc(/C=C/c2nc3ccc(Cl)cc3[nH]2)cc1 and O=C1/C(=C/c2ccc([N+](=O)[O-])s2)Oc2cc(Cl)ccc21 cannot be ordered by TGI: > 100 µM for the first, > 100 µM for the second.

CCN1c2ccccc2NC(=S)c2c1n[nH]c2-c1ccccc1 and Clc1cc(-c2ccccc2)nc(Nc2nc3ccccc3[nH]2)n1 cannot be ordered by TGI: > 100 µM for the first, > 100 µM for the second.

Cc1cc(Cl)nc2ccc(Cc3ccc4nc(Cl)cc(C)c4c3)cc12 and Cc1ccc(C)c2c1C(=O)N(c1ccc(F)cc1F)C2=O cannot be ordered by TGI: > 100 µM for the first, > 100 µM for the second.

COC1OCC(O)C(NC(=O)N(C)N=O)C1O (configuration not stated) and CC(=O)C(=O)NC1/C=C(C)\C=C/C(O)C/C=C(C)\C=C/C(O)CC2OC(=O)C1(C)C(=O)C2C (configuration not stated) cannot be ordered by TGI: > 100 µM for the first, > 100 µM for the second.

Going from CN1CCN(C(=O)CCC(=O)Nc2cc3c(c4ccccc24)-c2ccc4ccccc4c2C3)CC1 to O=C(Cc1nc2ccc(C(=O)c3ccccc3)cc2[nH]c1=O)C(=O)Nc1nc2ccccc2[nH]1, the TGI rises from 3.35 µM to > 100 µM.

C/C(CCC(=O)O)=N/Nc1ccc([N+](=O)[O-])cc1 and O=C(O)CN(c1ccccc1)S(=O)(=O)c1cccc([N+](=O)[O-])c1 cannot be ordered by TGI: > 100 µM for the first, > 100 µM for the second.

Going from COc1cccc2c1OC1Sc3ccccc3-c3nn(-c4ccccc4)c-2c31 (configuration not stated) to COc1ccc2c(c1)Oc1cc(O)ccc1[C@H]2c1ccccc1C(=O)NC(C)c1ccccc1 (some centres not stated), the TGI falls from > 100 µM to 31.8 µM.

First: CC[C@@]1(O)C[C@H](OC2CC(N(C)C)C(O)C(C)O2)c2c(cc3c(c2O)C(=O)c2c(O)ccc(O)c2C3=O)[C@H]1C(=O)OC (some centres not stated)
Second: COc1cccc2c1C(=O)c1c(O)c3c(c(O)c1C2=O)C[C@@](O)(C(C)=O)CC3S(=O)(=O)O (some centres not stated)
The TGI of the first is lower: 0.522 µM for the first, > 100 µM for the second.

CC(C)C(Nc1ncnc2nc[nH]c12)C(=O)O (configuration not stated) and COc1cc2c(NCCCCCO)ncnc2c(OC)c1OC cannot be ordered by TGI: > 100 µM for the first, > 100 µM for the second.

Cn1c2ccc(F)cc2c2ccc3c(c21)C(=O)C=CC3=O and COc1ccc(-c2coc3cc(O)ccc3c2=O)cc1 cannot be ordered by TGI: > 88.8 µM for the first, > 100 µM for the second.

First: CSc1cc(Cl)c(C)cc1S(=O)(=O)NC(=O)NNc1ccc(F)cc1
Second: CC(c1cc(Cl)ccc1O)c1cc(Cl)ccc1O
The TGI of the first is higher: > 100 µM for the first, 26.9 µM for the second.

O=c1c2c3c(sc2nc2n1N=CN(c1ccccc1)C2)CCCC3 and O=C1c2cc(I)ccc2N2CCN=C2N1Cc1ccccc1 cannot be ordered by TGI: > 100 µM for the first, > 100 µM for the second.

Going from COC(=O)c1cc(NC(=O)c2cc(NC(=O)c3cc([N+](=O)[O-])n(C)c3)cn2C)cn1C to COC(=O)CNC(=O)C(Cc1ccccc1)NC(=O)c1ccc(-c2ccc(Cl)cc2Cl)o1 (configuration not stated), the TGI rises from 7.94 µM to 71.4 µM (9-fold).

Cc1c(Cc2ccccc2)n(C(C)OCCN(OC(=O)Oc2ccccc2)C(=O)Oc2ccccc2)c(=O)[nH]c1=O (configuration not stated) and Cc1ccc([P+](Cc2ccccc2)(c2ccccc2)c2ccccc2)cc1 are within 1.5-fold of each other in TGI: 64.3 µM for the first, 54.7 µM for the second.

First: CCOP(=O)(CCCC(O)CNc1nc(N)nc(Cl)c1N=Nc1ccc(Cl)cc1)OCC (configuration not stated)
Second: Cc1nnc(N)nc1/C=C\c1ccc(Cl)cc1Cl
The TGI of the first is lower: 28.5 µM for the first, > 100 µM for the second.

O=C1CC(/C=C/c2ccco2)=C(O)C1=O and CCc1ccccc1NC(=O)C(C#N)C1=C(Cl)C(=O)c2ccccc2C1=O (configuration not stated) are within 1.5-fold of each other in TGI: 25.2 µM for the first, 32.7 µM for the second.

Compared with OCC1OC2c3ccccc3COC2C1OCc1ccccc1 (configuration not stated), O=C([O][Hg][c]1ccccc1)c1ccccc1 is lower in TGI: > 100 µM for the first, 20.3 µM for the second.

NC(=O)c1cccc2c(N[C@H](CN3CCC3)c3ccc(Cl)c(C(F)(F)F)c3)ncnc12 and CN(C)C1CCN(Cc2ccc(NC(=O)c3cncc(C#Cc4cnc(N)c5ncccc45)c3)cc2C(F)(F)F)CC1 are within 1.5-fold of each other in TGI: 18 µM for the first, 16.2 µM for the second.

Compared with O=C(Cc1ccccc1[N+](=O)[O-])C(CO)c1ccccc1[N+](=O)[O-] (configuration not stated), COc1ccc2nc3c([N+](=O)[O-])ccc(NCCN(C)C)c3c(N)c2c1 is lower in TGI: > 100 µM for the first, 2.71 µM for the second.

CC(C)=CC1C(C(=O)Oc2ccccc2C(C)C)C1(C)C (configuration not stated) and CNC(=O)N(CCC#N)CCN(C(=O)NC)c1ccccc1 cannot be ordered by TGI: > 100 µM for the first, > 100 µM for the second.

CC1CCC2C(C)C(=O)OC3OC4(C)CCC1C32OO4 (configuration not stated) and CC(=O)OCC1OC(N2C(=O)NC(=O)C3C=C4CCCCC4=CC32)CC1OC(C)=O (configuration not stated) cannot be ordered by TGI: > 100 µM for the first, > 100 µM for the second.

N=C(N)NCCCC(NC(=O)C1CC2CCCCC2N1C(=O)[C@H](NC(=O)C(CO)NC(=O)C(NC(=O)CNC(=O)[C@@H]1C[C@@H](O)CN1C(=O)C1CCCN1C(=O)C(CCCNC(=N)N)NC(=O)[C@@H](CCCNC(=N)N)NC(=N)CCCCCCC(=N)N[C@H](CCCNC(=N)N)C(=O)NC(CCCNC(=N)N)C(=O)N1CCCC1C(=O)N1C[C@H](O)C[C@H]1C(=O)NCC(=O)NC(C(=O)NC(CO)C(=O)N[C@@H](C(=O)N1C(C(=O)NC(CCCNC(=N)N)C(=O)O)CC2CCCCC21)C1Cc2ccccc2C1)C1Cc2ccccc2C1)C1Cc2ccccc2C1)C1Cc2ccccc2C1)C(=O)O (some centres not stated) (I: [ξR][ξP][Hyp]G[ξIgl][ξS][dIgl][ξOic][ξR]-OH / II: [ξR][ξP][Hyp]G[ξIgl][ξS][dIgl][ξOic][ξR]-OH; linker I:N-II:N via X50) gave a TGI of 5.34 µM.

Compared with O=[N+]([O-])c1ccc(/C=C/c2nc3ccc(Cl)cc3[nH]2)cc1, O=C1/C(=C/c2ccc([N+](=O)[O-])s2)Oc2cc(Cl)ccc21 is 2.6-fold lower in GI50: 33.7 µM for the first, 13.1 µM for the second.

Compared with C/C(CCC(=O)O)=N/Nc1ccc([N+](=O)[O-])cc1, COC(=O)c1cc(NC(=O)c2cc(NC(=O)c3cc([N+](=O)[O-])n(C)c3)cn2C)cn1C is lower in GI50: > 100 µM for the first, 2.13 µM for the second.

First: NC(=O)c1cccc2c(N[C@H](CN3CCC3)c3ccc(Cl)c(C(F)(F)F)c3)ncnc12
Second: CN(C)C1CCN(Cc2ccc(NC(=O)c3cncc(C#Cc4cnc(N)c5ncccc45)c3)cc2C(F)(F)F)CC1
The GI50 of the first is 3.4-fold lower: 2.6 µM for the first, 8.91 µM for the second.

First: Cc1ccc([P+](Cc2ccccc2)(c2ccccc2)c2ccccc2)cc1
Second: O=C([O][Hg][c]1ccccc1)c1ccccc1
The GI50 of the first is 1.7-fold lower: 4 µM for the first, 6.97 µM for the second.

Going from CC(c1cc(Cl)ccc1O)c1cc(Cl)ccc1O to Cc1ccc(C)c2c1C(=O)N(c1ccc(F)cc1F)C2=O, the GI50 rises from 12 µM to 28.7 µM (2.4-fold).

For CS(=O)(=O)CCNCc1ccc(-c2ccc3ncnc(Nc4ccc(OCc5cccc(F)c5)c(Cl)c4)c3c2)o1, the GI50 was 0.379 µM and 0.187 µM and 0.164 µM.

In the case of CS(=O)(=O)CCNCc1ccc(-c2ccc3ncnc(Nc4ccc(OCc5cccc(F)c5)c(Cl)c4)c3c2)o1, the TGI is reported as > 10 µM and > 100 µM and 14 µM.
